Experimental data as given in the supplement of paper PMC11417369.
Some of the results follow.

system: PfSIP2 AP2 domain 1 (GST-tagged); assay: gcPBM binding intensity (ln(normalized median fluorescence intensity)); higher = stronger DNA binding
Method in brief: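 GST-fused DNA-binding domains of P. falciparum, expressed in E. coli, were applied at about 25 μg on average for 1 h to an Agilent 4 × 180k array of primer-extended double-stranded 36-bp intergenic genomic probes and negative controls. Binding intensity is the highest Masliner-normalised natural-log median intensity across replicate spots of either probe orientation, measured with Alexa488 anti-GST antibody and a 488 nm scan.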

Sequence | gcPBM binding intensity (ln)
ATTGATATTGTATAATGTACAGGAAAAAAAAAAAAA [XGTACX_site526] | 6.91
TTCTTTATTTTTTCTACACACATTATGTATTCAAAG [CACACA_site3527] | 7.69
TGAAAGAACCTGATTACACACATAAGTTATAAATAT [CACACA_site6165] | 6.82
AATCTCAGAATATACTGTACTTTAAGAAAAAAAAAA [XGTACX_site110] | 7.09
AATATATATTTGTGTACACATTATATATATATATAT [CACACA_site6103] | 9.38
AAAATTTAAATAGGAAGTACGTTCACTAAGAAAATA [XGTACX_site6546] | 7.05
AAATAAAGATATATATATATATATATATATAATTTT [CACACA_negctrl_site30] | 7.7
AAAATGTGCATATTTGCACACTTCAATATATATATA [CACACA_site1791] | 9.19
CATAAATCAGCCATAACACACATACCTATATACATA [CACACA_site6324] | 7.01
AAATATTTTGCATACACATGCAAATATTTTTTACAT [TGCATGCA_site554] | 6.87
AATATAAAAAGGCACACACACAAAAAAAAAAAAAAA [CACACA_site896] | 7.13
ATTTCTAAATGTTGGTGTACGTTTTTTTATAACCTT [XGTACX_site1752] | 6.88
AATAAATGGAATGTCACACATATATATATATATATA [CACACA_site4869] | 9.35
ATTATTTAAAAAAAATGTACATAATAAATATGAACG [XGTACX_site4010] | 6.9
AGTGTATGTATATAAACACACATACATATTTATAAC [CACACA_site6777] | 6.93
AAAAAAAAGAAAGAAAGTACAAATTATAAAATGAAC [XGTACX_site860] | 6.75
TAAATTAAAAAACACACACACAAAAAAAAAAAAAAA [CACACA_site2263] | 6.85
TTGATATTATTGTATAAACATAATAGAGATAAAGAG [TGCATGCA_negctrl_site455] | 7.62
CAGGTGCACTATATTACACACGCTTCTTTTTTTTTA [CACACA_site2069] | 12.4
TACAAAAAAATAAATAATAAAAAAAAATATATATAA [XGTACX_negctrl_site344] | 6.79
TGAAGGATATATTCCGTGCACATATAAATATATACA | 9.71
AACATGTTAACTAAATGTACACACCTATGTTGATGT [XGTACX_site3777] | 6.98
GGAAAACACAAAAACTGTACATTTATTCAACATATA [XGTACX_site5831] | 6.95

Sequence | gcPBM binding intensity (ln)
TATATACATATATACACACACATATATATATATATA [CACACA_site2805] | 9.43
ATAGGTAAAAAGTATACACACGTTGACACATTCTTT [CACACA_site4794] | 6.98
AAATAATACAAGGGCTGTACATAAAAAGGAGTATAT [XGTACX_site839] | 7.42
ATTTTAAAAAGGATAGTGCAAATGTTAAAATAGGAC | 8.74
ATTTATTTTCTGTGTACACATATGTTGGGTATTTTA [CACACA_site5902] | 7.53
AGAAAAAAAAAAAGTACACACATATAACATATAGAT [CACACA_site7410] | 6.9
GTATATATCCCAAAATGTACATAATTTATTATTTAT [XGTACX_site2842] | 7.17
CAAAAGGATGTGGGATGTACATATGAAAAAAAAAAA [XGTACX_site8059] | 7.02
TTTTATTTATAATACTCACACATTTATATTACATAT [CACACA_site6000] | 6.9
GGTCTTTTTTTCAAAAGTACATAAATAAAAAAGGTT [XGTACX_site2894] | 7.51
TTGTATGTAAAAAAGTGTACATGAGTGATTATATAA [XGTACX_site8166] | 7.16
TAAATTTAAAAATCTGCACACATTTAAAAAAAAAAA [CACACA_site2515] | 7.14
ATTACTAAAAAATATAAACACACATATATTTTACAT [CACACA_site8633] | 6.94
GAAAATTTAAAAAGAGTGCATTATATGTTTGAATAT [GTGCAC_site9564] | 9.18
CTTTTTTTCTTTCCAAGTACTAAATTCATACAAATT [XGTACX_site2605] | 7.05
AATAAAATAATAAAAGCACACAAGAATACACCCAAA [CACACA_site7919] | 7.03
TTTAACGAATAAAAATGTACAAATTTATACATTTAT [XGTACX_site2805] | 6.79
TATAAACCTTTTTGCACGCACACAAAAAAAAAATAA [CACACA_site168] | 7.85
AAACATATATACATATGTACATATATACATATATGT [XGTACX_site5779] | 7.12
TTCGGAAAAATTAAAGCACACAAAAAAAAATAAAAA [CACACA_site8296] | 7.17
GATTAACAACATATTAGTACATATATTATATATATA [XGTACX_site7646] | 8.17
GACTATAATGTTTTGGTGCGTCATGTTATGGTCATC | 8.51
CATATTTTATTATATACATGCAATTTTAATATATAT [TGCATGCA_site544] | 7.01

Sequence | gcPBM binding intensity (ln)
CACCCCCACAGACACACACACACACCGATATATATA [CACACA_site8010] | 7.89
TATAATTTAACGACATGTACATATAAAAAAATATTT [XGTACX_site2395] | 7.2
ATACACATTCTTCCGACATAATAAGAAAAAGAAAAA [CACACA_negctrl_site9] | 7.17
AAAATGTATTCTCTCATGCACACTTTCTTTAAGGGA [CACACA_site2196] | 7.68
TTATTTATATTTTTTTGTACACATATTGTATACATA [XGTACX_site1178] | 7.22
TGTAGATTTTGTAACACACACATATAAATACCTATA [CACACA_site7183] | 7.03
ATCTCTTATATATTCACACACATATATATAATTATA [CACACA_site1502] | 7.45
AAATATAATAACGAACGTACTTATTATAATTTGTAA [XGTACX_site2342] | 6.83
TATTTATATATATGATGTACATAAGGTGTAATGTTA [XGTACX_site5591] | 7.24
TACATGAATATTTATACATGCACACTAAAATAAAGA [TGCATGCA_site611] | 8.56
TATTTACATACAAAATGTACAAAAATATATTTTTTT [XGTACX_site888] | 7.2
ATATATATTTAATGTTGTACATAAAAAATATATAAA [XGTACX_site7774] | 7
AAAGAATACAAAATTGCACACATATTGTGAAAATGT [CACACA_site9327] | 7.09
TATTAACACAATAGCGCACACTTTTAATATTTTATA [CACACA_site1617] | 7.12
ATATAATGTTGTAATAGTACTTTTTTCATATAAATA [XGTACX_site2666] | 7.1
CTTAAATTGAAATGTTGTACAAAGTAAAAACAATGA [XGTACX_site2123] | 6.85
TATTTCCATTCATAATTTTGTAGAATATATAACCGT [CACACA_negctrl_site1531] | 7.08
CGTATATATATATACACACACATATATATATGTAAA [CACACA_site195] | 7.08
AAAAACTTAATATTCACACATATATATATATATATA [CACACA_site5240] | 9.48
AAAAAAAAAAATTACACACATACATATAATAATAAT [CACACA_site2193] | 6.9
TTTACAAAAAATTATACACACACGTACATATAAATA [CACACA_site945] | 7.12
TTTTATTATTAATTTCTTTTTTCTCATCACTTTCAA [XGTACX_negctrl_site117] | 6.85
ATATATATAAAATATACACACATACTGTTCATTTAA [CACACA_site6149] | 7.44

Sequence | gcPBM binding intensity (ln)
TAATTTATGAGTAATACACACACTTGTGGATATATT [CACACA_site3790] | 6.73
TACGTTCTAATATATACACACCTGGTATTAATTATG [CACACA_site5260] | 7.03
GAAAAATTTTTATATGTGCACATGTTATATATAATT [GTGCAC_site9742] | 8.64
AAATATTATTTATTTACACACCAATCTTCTTTTCTT [CACACA_site3990] | 6.96
ATATTTATATGGTTTGCACACATAACAACTATGGTT [CACACA_site3631] | 6.99
ATATAACATATCAATTGTACGTATTGATAATATATA [XGTACX_site2504] | 6.96
TTTTGTTTTAATTTTATTTGATTTTATTTGATTTAT [CACACA_negctrl_site692] | 6.69
AGGCACACAAACATATGTACACATATATATATATAT [XGTACX_site4723] | 9.15
TTTATTGAACGTACACATATATATATGTATATATTT [TGCATGCA_negctrl_site141] | 7.21
TTATTTTTTTTATATATATGTATAAATATATATATA [XGTACX_negctrl_site441] | 8.31
GACAAAATGATAGGGACACACAATATCAATGTTTAA [CACACA_site765] | 6.96
TCAATCATCTTATATAGTACACATAAAAGTATTATA [XGTACX_site8513] | 6.92
AAAAAAAAAAATCCAGTGCATATATTTTTTACATAT | 9.29
ATTACATTAATAAGAGTGCATTATATAAGTTTTATG | 8.23
CCACTAATAAATATTACACACATATAGATTTATATT [CACACA_site7465] | 7.1
CAAAAGGATATGCACACACACACACGGATATTTATA [CACACA_site7099] | 7.41
TTTTGTTATTAGAGGGTGCTTATAATGAACTCCTAC | 8.29
TATATTTATTTATATACACACACTTGTATAAAAAAT [CACACA_site2036] | 7.13
TTAAATATTTTTAGAGTGCATGTAATAAAAATATAA [GTGCAC_site9414] | 10.2
TATATCAAAATACATACACACATTTGTATATACATT [CACACA_site2696] | 7.02
TATATACAGAAACACACACACACATATATATATATA [CACACA_site2247] | 9.38
